{"source": "PubChem BioAssay AID504333", "about": "(National Center for Advancing Translational Sciences (NCATS), 2011)", "note": "Hit rate of the full screen: of about 360,000 compounds, about 16,000 (4.4%) were called active. The shares of active, inactive and inconclusive entries below differ from those in the screen. The call rests on the fitted dose curve; in most records, active means well fitted inhibition curve with a large enough effect; inconclusive means small, poorly fitted or top-dose-only effect; inactive means no such curve, though single readings can be large or run the other way. A potency beside an inconclusive call is a rough fit, not a confirmed value. On the % scale 0 is the no-effect control and ±100 the full control effect; potency means the concentration at half of the fitted maximal effect; tags describe the fitted curve by direction and shape.", "data": [{"biological_target": "Bromodomain adjacent to zinc finger domain protein 2B (Homo sapiens) (UniProt Q9UIF8)", "sequence (Q9UIF8 whole entry, looked up, the tested form may be a part)": "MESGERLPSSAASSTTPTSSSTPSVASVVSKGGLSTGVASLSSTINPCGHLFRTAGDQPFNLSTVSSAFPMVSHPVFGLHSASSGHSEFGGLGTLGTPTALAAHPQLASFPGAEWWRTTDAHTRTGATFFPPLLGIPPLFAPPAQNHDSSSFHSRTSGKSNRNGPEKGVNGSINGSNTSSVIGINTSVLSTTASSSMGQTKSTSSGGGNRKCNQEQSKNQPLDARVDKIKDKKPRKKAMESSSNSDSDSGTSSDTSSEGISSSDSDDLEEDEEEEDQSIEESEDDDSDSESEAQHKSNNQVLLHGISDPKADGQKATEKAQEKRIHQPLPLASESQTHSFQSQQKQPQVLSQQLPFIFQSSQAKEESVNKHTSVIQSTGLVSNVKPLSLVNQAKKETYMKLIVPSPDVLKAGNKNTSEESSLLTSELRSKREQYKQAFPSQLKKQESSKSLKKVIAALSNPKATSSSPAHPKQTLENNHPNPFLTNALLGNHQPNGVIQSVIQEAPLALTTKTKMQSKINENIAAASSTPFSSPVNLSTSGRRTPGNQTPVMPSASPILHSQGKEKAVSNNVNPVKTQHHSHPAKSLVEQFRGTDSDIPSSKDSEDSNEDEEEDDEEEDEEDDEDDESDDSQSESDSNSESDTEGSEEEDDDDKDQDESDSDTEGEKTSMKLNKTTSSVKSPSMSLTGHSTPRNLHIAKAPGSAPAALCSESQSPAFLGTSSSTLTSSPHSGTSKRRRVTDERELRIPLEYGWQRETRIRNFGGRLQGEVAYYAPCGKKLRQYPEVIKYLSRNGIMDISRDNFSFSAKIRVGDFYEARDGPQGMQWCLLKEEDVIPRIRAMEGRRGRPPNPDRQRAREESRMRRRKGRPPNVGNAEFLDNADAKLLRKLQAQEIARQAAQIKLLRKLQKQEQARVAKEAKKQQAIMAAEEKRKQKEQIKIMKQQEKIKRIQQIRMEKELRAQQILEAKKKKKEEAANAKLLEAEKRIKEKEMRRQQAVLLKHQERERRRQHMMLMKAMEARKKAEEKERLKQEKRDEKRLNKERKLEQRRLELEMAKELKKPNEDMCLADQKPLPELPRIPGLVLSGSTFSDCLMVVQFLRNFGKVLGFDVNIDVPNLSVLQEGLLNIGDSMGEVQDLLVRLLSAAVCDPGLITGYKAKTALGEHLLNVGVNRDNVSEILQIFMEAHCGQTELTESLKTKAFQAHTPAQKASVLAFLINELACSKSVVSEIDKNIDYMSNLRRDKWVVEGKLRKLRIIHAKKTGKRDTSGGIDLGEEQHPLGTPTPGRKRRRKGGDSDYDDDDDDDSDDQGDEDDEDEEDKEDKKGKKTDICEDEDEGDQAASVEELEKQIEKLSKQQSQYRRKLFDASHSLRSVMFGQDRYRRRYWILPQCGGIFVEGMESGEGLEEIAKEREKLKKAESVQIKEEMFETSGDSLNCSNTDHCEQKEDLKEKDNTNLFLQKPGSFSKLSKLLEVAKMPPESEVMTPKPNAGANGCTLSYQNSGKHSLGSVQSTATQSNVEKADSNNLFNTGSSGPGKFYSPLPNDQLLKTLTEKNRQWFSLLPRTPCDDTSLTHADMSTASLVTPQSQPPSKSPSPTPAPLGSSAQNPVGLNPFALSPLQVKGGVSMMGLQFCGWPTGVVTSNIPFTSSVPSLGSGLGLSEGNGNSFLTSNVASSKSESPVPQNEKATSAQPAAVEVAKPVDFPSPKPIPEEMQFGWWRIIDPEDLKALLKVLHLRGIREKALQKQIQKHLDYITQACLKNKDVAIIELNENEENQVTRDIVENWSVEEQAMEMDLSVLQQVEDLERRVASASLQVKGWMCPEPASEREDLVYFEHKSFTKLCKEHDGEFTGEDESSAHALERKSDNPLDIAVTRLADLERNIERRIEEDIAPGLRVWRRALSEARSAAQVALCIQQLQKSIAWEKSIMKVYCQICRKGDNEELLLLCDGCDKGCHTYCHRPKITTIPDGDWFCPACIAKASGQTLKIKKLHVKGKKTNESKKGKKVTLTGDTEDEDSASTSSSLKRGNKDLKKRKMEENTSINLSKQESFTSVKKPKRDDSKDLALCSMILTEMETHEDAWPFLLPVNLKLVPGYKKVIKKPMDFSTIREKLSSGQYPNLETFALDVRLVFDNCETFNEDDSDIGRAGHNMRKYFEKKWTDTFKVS", "assay": "qHTS Assay for Inhibitors of BAZ2B; further: nearly all actives have a fitted effect of over 60% in size", "conditions": "AlphaScreen BAZ2B-H3K14Ac peptide displacement; activity change, negative = inhibition: at 114 µM (top of the series) unless noted", "how_it_was_run": "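Inhibition is scored as reduced AlphaScreen emission. The BAZ2B/b-H3(5-23)K14Ac complex (50 nM each) in PBS pH 7.4, 0.01% Tween-20 meets compound (up to 110 uM) for 30 min at RT before bead addition.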", "values": [{"smiles": "CCOc1ccc(CC(=O)NNC(=S)Nc2ccccc2)cc1Br", "activity change, negative = inhibition": "inactive: 0.814%"}, {"smiles": "CC(=O)Nc1sc2c(c1C(c1ccc(Cl)cc1)N1CCOCC1)CCCC2", "note": "(stereo unspecified)", "Potency": "inconclusive: 50.1 µM [inhibitor, partial curve]"}, {"smiles": "CCCCc1nc(N2CCN(C(=O)c3ccco3)CC2)c(C#N)c2c1CCCC2", "Potency": "inconclusive: 10 µM [inhibitor, full curve]"}, {"smiles": "CCN(CC)S(=O)(=O)c1cccc(C(=O)N/N=C/c2ccc(O)c(O)c2O)c1", "Potency": "active: 39.8 µM"}, {"smiles": "C(=N\\N1CCN(c2ccccn2)CC1)/c1ccco1", "Potency": "inconclusive: 70.8 µM [inhibitor, partial curve]"}, {"smiles": "COc1ccc([C@H]2[C@H](C(=O)C(C)(C)C)N3N=Cc4ccccc4C3[C@]23N=C(c2ccccc2)OC3=O)cc1", "note": "(stereo partly specified)", "Potency": "inconclusive: 70.8 µM [inhibitor, single point]"}, {"smiles": "COc1ccccc1C1CC(c2ccc(Br)cc2)=NN1C(=O)c1cccnc1", "note": "(stereo unspecified)", "Potency": "inconclusive: 56.2 µM [inhibitor, partial curve]"}, {"smiles": "O=C(NCCCn1ccnc1)/C(=C/c1ccco1)NC(=O)c1cccs1", "Potency": "active: 79.4 µM"}, {"smiles": "Cc1sc2nc(CSC(C)C(=O)Nc3cc(S(C)(=O)=O)ccc3Cl)[nH]c(=O)c2c1C", "note": "(stereo unspecified)", "activity change, negative = inhibition": "inactive: -22.2%"}, {"smiles": "CC(=O)c1ccc(NC(=O)CSc2cn(CC(=O)N3CCCCCC3)c3ccccc23)cc1", "Potency": "inconclusive: 79.4 µM [inhibitor, single point]"}, {"smiles": "CCOc1cccc(C(=O)Nc2ccc(N3CCN(S(C)(=O)=O)CC3)cc2)c1", "activity change, negative = inhibition": "inactive: -2.34%"}, {"smiles": "CCC1(c2ccc(F)cc2)NC(=O)N(CC(=O)N2c3ccccc3NC(=O)C2(C)C)C1=O", "note": "(stereo unspecified)", "Potency": "inconclusive: 89.1 µM [inhibitor, single point]"}, {"smiles": "CC(=O)c1c(C(C)=O)c(C)n(-c2ccc(C)c(NC(=O)c3ccccc3Cl)c2)c1C", "Potency": "inconclusive: 79.4 µM [inhibitor, single point]"}, {"smiles": "O=[N+]([O-])c1ccccc1-c1ccc(C(=S)N2CCN(c3ccccc3)CC2)o1", "Potency": "active: 8.91 µM"}, {"smiles": "Cc1cnc(CN(C)Cc2nc(Cc3cccc(C(F)(F)F)c3)no2)[nH]1", "activity change, negative = inhibition": "inactive: -21%"}, {"smiles": "CN(CC(=O)Nc1ccc(F)cc1)C(=O)CN1C(=O)c2ccccc2C1=O", "activity change, negative = inhibition": "inactive: 6.15%"}, {"smiles": "CC(C)(CN=C1NS(=O)(=O)c2ccccc21)CNC(=O)c1ccccc1", "activity change, negative = inhibition": "inactive: -0.875%"}, {"smiles": "CN(C)C(=O)COC(=O)c1ccc(S(=O)(=O)NCc2ccco2)cc1", "Potency": "inconclusive: 70.8 µM [inhibitor, single point]"}, {"smiles": "CCOc1ccc(Nc2cc(C)nc(-n3nc(C)cc3C)n2)cc1", "Potency": "inconclusive: 7.94 µM [inhibitor, full curve]"}, {"smiles": "COc1ccc(NC(=O)CSc2nc(-c3ccco3)nc3cc(=O)[nH]n23)cc1", "Potency": "active: 79.4 µM"}, {"smiles": "Cc1ccc(C(=O)c2c(NC(=O)CSc3nnc(N)s3)sc3c2CCCC3)cc1", "Potency": "inconclusive: 50.1 µM [inhibitor, partial curve]"}, {"smiles": "CN(C)c1ccc(CNS(=O)(=O)c2ccc3c(c2)C(C)(C)C(=O)N3C)cc1", "Potency": "inconclusive: 89.1 µM [inhibitor, single point]"}, {"smiles": "COc1ccc(CN2CCC(C(N)=O)CC2)cc1OCc1ccccc1", "Potency": "inconclusive: 89.1 µM [inhibitor, single point]"}, {"smiles": "CC(NS(=O)(=O)/C=C/c1ccccc1)C(=O)NCCc1ccc(S(N)(=O)=O)cc1", "note": "(stereo unspecified)", "Potency": "inconclusive: 50.1 µM [inhibitor, partial curve]"}, {"smiles": "Cc1cc(N/N=C/c2ccccc2Cl)nc(NCc2ccccc2)n1", "Potency": "inconclusive: 44.7 µM [inhibitor, partial curve]"}, {"smiles": "O=S1(=O)c2ccccc2N=NN1Cc1ccc(Cl)c(Cl)c1", "Potency": "active: 79.4 µM"}, {"smiles": "O=C(Nc1ccc(-c2nnn(CC(=O)N3CCN(C(=O)c4ccco4)CC3)n2)cc1)c1ccc(F)cc1", "Potency": "active: 79.4 µM"}, {"smiles": "Cc1ccc(NC(=O)c2sc(-n3nc(C)c(Cc4ccc5c(c4)OCO5)c3C)nc2C)cc1C", "activity change, negative = inhibition": "inactive: -5.71%"}, {"smiles": "NC(=O)/C(=C\\c1cccnc1)NC(=O)c1ccccc1", "activity change, negative = inhibition": "inactive: 1.27%"}, {"smiles": "CCC(=O)Nc1cc(Cl)ccc1C(=O)O", "Potency": "inconclusive: 89.1 µM [inhibitor, single point]"}, {"smiles": "CCCSCC(=O)Nc1ncc2c(n1)-c1ccccc1CC2", "Potency": "active: 56.2 µM"}, {"smiles": "CC(C)c1ccc(NCCC(=O)c2cccs2)cc1", "Potency": "inconclusive: 22.4 µM [inhibitor, full curve]"}, {"smiles": "CN(C)CCCn1c(SCc2ccc(Cl)cc2)nnc1-c1ccncc1", "Potency": "active: 56.2 µM"}, {"smiles": "Cc1cccc(NC(=O)c2sc3nc(-c4ccccc4)cn3c2C)n1", "activity change, negative = inhibition": "inactive: 1.42%"}, {"smiles": "O=C(O)c1ccc(NC(=S)NC(=O)c2ccc(-c3ccccc3)cc2)cc1", "Potency": "inconclusive: 70.8 µM [inhibitor, single point]"}, {"smiles": "c1ccc2c(c1)CCN(C1CCCCC1)C2", "Potency": "active: 79.4 µM"}, {"smiles": "O=C(O)c1ccccc1N=N/C(=N/Nc1cc(S(=O)(=O)O)ccc1O)c1ccccc1", "Potency": "active: 11.2 µM"}, {"smiles": "S=c1[nH]nc(-c2ccc(Cl)cc2)n1/N=C/c1ccco1", "activity change, negative = inhibition": "inactive: -26%"}, {"smiles": "CN(C[C@@H](Cc1cccc2ccccc12)N(C[C@H](Cc1ccccc1)N(CCc1ccccc1)N=O)N=O)N=O", "Potency": "inconclusive: 79.4 µM [inhibitor, single point]"}, {"smiles": "N#Cc1ccc(Nc2nc(-c3ccc(O)cc3O)cs2)cc1C(F)(F)F", "Potency": "inconclusive: 50.1 µM [inhibitor, partial curve]"}, {"smiles": "CCN(CC)CCOC(=O)c1ccc(NC(=O)CCCN2C(=O)S/C(=C/c3ccc(OC)cc3)C2=S)cc1", "Potency": "inconclusive: 17.8 µM [inhibitor, full curve]"}, {"smiles": "O=C(Nc1nnc(-c2ccco2)o1)c1ccc(N2C(=O)CCC2=O)cc1", "Potency": "active: 17.8 µM"}, {"smiles": "O=C(c1ccccc1)N1CCN(C(=O)c2nn3c(C(F)(F)F)cc(-c4ccccc4)nc3c2Br)CC1", "activity change, negative = inhibition": "inactive: 2.67%"}, {"smiles": "O=C(CSCc1cccc(Br)c1)N/N=C/c1ccc2c(c1)OCO2", "Potency": "inconclusive: 89.1 µM [inhibitor, single point]"}, {"smiles": "CCNC(=S)N1CCc2cc(OC)c(OC)cc2C1COc1ccccc1OC", "note": "(stereo unspecified)", "Potency": "inconclusive: 39.8 µM [inhibitor, partial curve]"}, {"smiles": "CCCCNCCOCCSc1ccc(Cl)cc1", "Potency": "inconclusive: 89.1 µM [inhibitor, single point]"}]}]}
